Residue numbers refer to the chain shown, from its start. Recombinant human monoclonal antibodies (heavy:light variable regions). ELISA EC50 on the named antigen, from 10 µg/ml down; IC50 / IC90 against spike pseudovirus on 293T-ACE2 cells, 48 h; lower = stronger. Calls: IC50 above 1,000 ng/ml = non-neutralizing; EC50 above 2,000 ng/ml = non-binder. The source prints 1000 for neutralization that was not reached; it is given as >1000 ng/ml. A few antibodies were first reported in earlier work of the same group.
B1: C2121 (protein)
chain 1: EVQLLESGGGLVQPGGSLRLSCAASGFTFSSYAMSWVRQAPGKGLEWVSAISFSGGSTYYADSVKGRFTISRDNSKNTLYLQMNSLRAADTAVYYCAKDLGYCSGGSCFSGSPGWGQGTLVTVSS
chain 2: NFMLTQPHSVSESPGKTVTISCTGSSGSIASNYVQWYQQRPGSAPTTVIYEDNQRPSGVPDRFSGSIDSSSNSASLTISGLKTEDEADYYCQSYDSSNHVVFGGGTKLTVL
B2: C2123 (protein)
chain 1: QVQLVQSGAEVKKPGASVKVSCKASGYTFTNYAMHWVRQAPGQRLEWMGWINAGNGNTKYSRKFQGRVTITRDTSASTAYMDLSSLRSEDTAVYYCAREPPSHSSGYYNESGGAFDIWGQGTMVTVSS
chain 2: SYELTQPPSVSVSPGQTARITCSGDALPKKYAYWYQQKSGQAPVLVIYGDSKRPSGIPERFSGSSSGTMATLTISGAQVEDEADYYCYSTDSSEGVFGGGTKLTVL
B3: C2124 (protein)
chain 1: EVQLVESGGGLVQPGGSLRLSCAASGFTFSSYWMHWVRQAPGKGLVWVSRINSDGSSTTYADSVKGRFTISRDNAKNTLYLQMNSLRAEDTAVYYCARVGGTIVGDADYFDYWGQGTLVTVSS
chain 2: SYELTQPPSVSVAPGKTARITCGGNNIGSKSVHWYQQKPGQAPVLVVYDDSDRPSGIPERFSGSNSGNTATLTISRVEAGDEADYYCQVWDSSSDPWVFGGGTKLTVL
B4: C2139 (protein)
chain 1: EVQLVETGGGLIQPGGSLRLSCVASEFIVSSNYMSWVRQAPGKGLEWVSIIYSGGSTFYADSVKGRFTISRDNSKNTLYLQMNSLRAEDTAVYYCARVLPMNWYYFDYWGQGALVTVSS
chain 2: QSVLTQPPSVSGAPGQRVTISCTGSSSNIGAGYDVHWYQQLPGTAPKLLIYANSNRPSGVPDRFSGSKSGTSASLAITGLQAEDEADYYCQSYDSSLSGSRVFGGGTKLTVL
B5: C2141 (protein)
chain 1: VQLVESGGGVVQPGRSLRLSCAASGFTFSSYGMHWVRQAPGKGLEWVAVISYDGSNKYYADSVKGRFTISRDNSKNTLYLQMNSLRAEDTAVYYCAKNLGIYCSGGSCYSGSFDYWGQGTLVTVSS
chain 2: IRMTQSPSSLSASVGDRVTITCQASQDISNYLNWYQQKPGKAPKLLIYDASNLETGVPSRFSGSGSGTDFTFTISSLQPEDIARYYCQQYDNFALTFGGGTKVEIK
B6: C2067 (protein)
chain 1: B2 chain 1 with K13M, N31F, A33S, W50C, R62Q, I70F, D82E, S84T, N109Y, E110G
chain 2: B2 chain 2 with G49A
B7: C2062 (protein)
chain 1: VQLVESGGGVVQPGRSLRLSCAASGFTFSSYGMHWVRQAPGKGLEWVAVILYDGSNKYYADSVKGRFTISRDNSKNTLYLQMNSLRADDTAVYYCAKAGLYGDYVRFGYWGQGTLVTVSS
chain 2: B5 chain 2 with P39A, A42V, D69H, R84T, D91N, F93L, A94P
B8: C2059 (protein)
chain 1: VQLVESGGGVVQPGRSLRLSCAASGFTFSSYGMHWVRQAPGKGLEWVAVISYDGSNKYYADSVKGRFTISRDNSKNTLYLQMNSLRAEDTAVYYCAKVGYSYGYSYNYFDYWGQGTLVTVSS
chain 2: IRMTQSPSSLSASVGDRVTITCQASQDISNYLNWYQQKPGKAPKLLIYDASNLETGVPSRFSGSGSGTDFTFTISSLQPEDIATYYCQQYDNLPPYTFGQGTKLEIK

Columns and labels:
[1] = target: SARS-CoV-2 Wuhan-Hu-1 spike pseudovirus; experiment: pseudovirus neutralization IC50; higher = weaker neutralization
Experimental: (§1)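 Single-round luciferase reporter pseudovirus mixed with antibody dilutions and put on 293T-ACE2 cells for 48 h; signal relative to no-antibody wells, four-parameter fit.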

[2] = target: SARS-CoV-2 Wuhan-Hu-1 spike pseudovirus; experiment: pseudovirus neutralization IC90; higher = weaker neutralization
Experimental: as §1

[3] = target: SARS-CoV-2 Wuhan-Hu-1 spike receptor-binding domain; experiment: ELISA binding EC50; higher = weaker binding; ELISA of recombinant human antibody on coated antigen, from 10 µg/ml in fourfold dilutions; four-parameter fit.

Binder | pseudovirus neutralization IC50 [1] | pseudovirus neutralization IC90 [2] | ELISA binding EC50 [3]
B1 | > 1 µg/mL | > 1 µg/mL | 0.0173 µg/mL
B2 | 0.0395 µg/mL | 0.531 µg/mL | 0.00219 µg/mL
B3 | > 1 µg/mL | > 1 µg/mL | 0.00185 µg/mL
B4 | 0.0201 µg/mL | 0.143 µg/mL | 0.00402 µg/mL
B5 | > 1 µg/mL | > 1 µg/mL | 0.00315 µg/mL
B6 | > 1 µg/mL | > 1 µg/mL | 0.0242 µg/mL
B7 | > 1 µg/mL | > 1 µg/mL | 0.0027 µg/mL
B8 | > 1 µg/mL | > 1 µg/mL | 0.00406 µg/mL

Reference: the supplement of paper PMC8674133
